# Laboratory results as given in PubChem BioAssay (Tox21).
# Inconclusive results, whose numbers are uncertain, are shown with a selection of clear calls. For part of these data: Potencies of inconclusive entries are doubtful fits and often do not repeat. A structure can be active in one record and inactive in another. Active and inactive are the calls of the source. Calls come from the whole dose curve; as a rule, active = well fitted curve in the direction sought with a large enough effect in the repeat runs; inconclusive = weak or mixed curves; inactive = no such curve, though single readings can be large; an effect the other way counts as inactive or inconclusive.
# Columns and labels:
# [1] = A CellTox Green Cytotoxicity Assay to monitor cytotoxicity in HEK293 cells - 0 hour (AID 1224869); conditions: CellTox Green fluorescence; series mostly up to 76.8 µM; note: nearly all actives have a fitted effect of over 50% in size; note: potency is the fitted concentration of half-maximal effect; for Cytotoxicity: % is set by controls: 0 for no effect and ±100 for the full control effect
# Summary of the method: (§1)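 Fluorescence from a DNA-binding dye excluded by viable cells was measured repeatedly in the same HEK293 wells (600 cells/well) during continuous compound exposure at 37 C. Each assay gives one read point: 0, 8, 16, 24, 32 or 40 h.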
# [2] = A CellTox Green Cytotoxicity Assay to monitor cytotoxicity in HepG2 cells - 40 hour (AID 1224879); conditions: CellTox Green fluorescence; series mostly up to 76.8 µM; note: potency is the fitted concentration of half-maximal effect; nearly all actives have a fitted effect of over 40% in size
# Summary of the method: (§2)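 Real-time cytotoxicity: fluorescence of a cell-impermeant cyanine dye binding DNA of dead HepG2 cells, measured repeatedly (0–40 h) during compound exposure at 37 C. Cells seeded 600/well with reagent, dosed after 5 h.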
# [3] = qHTS RealTime-Glo MT Cell Viability Assay in HEK293 cells - 32 hour (AID 1224868); conditions: RealTime-Glo luminescence; series mostly up to 76.8 µM; note: top concentration of the series differs between compounds; % is set by controls: 0 for no effect and ±100 for the full control effect; nearly all actives have a fitted effect of over 50% in size
# Summary of the method: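 Nonlytic real-time viability readout: viable cells convert prosubstrate to NanoLuc substrate, giving luminescence proportional to live cell number. HEK293, 600 cells/well, compound added after 5 h, continuous culture at 37 C.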
# [4] = A CellTox Green Cytotoxicity Assay to monitor cytotoxicity in HEK293 cells - 32 hour (AID 1224881); conditions: CellTox Green fluorescence; series mostly up to 76.8 µM; note: nearly all actives have a fitted effect of over 40% in size; note: potency is the fitted concentration of half-maximal effect
# Summary of the method: as §1
# [5] = A CellTox Green Cytotoxicity Assay to monitor cytotoxicity in HEK293 cells - 40 hour (AID 1224871); conditions: CellTox Green fluorescence; series mostly up to 76.8 µM; note: nearly all actives have a fitted effect of over 45% in size; note: potency is the fitted concentration of half-maximal effect
# Summary of the method: as §1
# [6] = A CellTox Green Cytotoxicity Assay to monitor cytotoxicity in HepG2 cells - 24 hour (AID 1224878); conditions: CellTox Green fluorescence; series mostly up to 76.8 µM; note: potency is the fitted concentration of half-maximal effect; nearly all actives have a fitted effect of over 45% in size
# Summary of the method: as §2
# [7] = qHTS RealTime-Glo MT Cell Viability Assay in HEK293 cells - 0 hour (AID 1224880); conditions: RealTime-Glo luminescence; series mostly up to 76.8 µM; note: potency is the fitted concentration of half-maximal effect; nearly all actives have a fitted effect of over 45% in size
# Summary of the method: (§3)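 Luminescence, which tracks viable cell number through reduction of the prosubstrate to a NanoLuc substrate, was read over continuous 37 C culture. Cells (600/well) were premixed with reagent and rested 5 h before 23 nL of compound in DMSO was pinned.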
# [8] = A CellTox Green Cytotoxicity Assay to monitor cytotoxicity in HEK293 cells - 24 hour (AID 1224875); conditions: CellTox Green fluorescence; series mostly up to 76.8 µM; note: nearly all actives have a fitted effect of over 45% in size; note: potency is the fitted concentration of half-maximal effect
# Summary of the method: as §1
# [9] = qHTS RealTime-Glo MT Cell Viability Assay in HepG2 cells - 40 hour (AID 1224870); conditions: RealTime-Glo luminescence; series mostly up to 76.8 µM; note: % is set by controls: 0 for no effect and ±100 for the full control effect; nearly all actives have a fitted effect of over 50% in size
# Summary of the method: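 HepG2 cells mixed with RealTime-Glo MT reagents (NanoLuc plus cell-permeant prosubstrate) were seeded at 600 cells/well, incubated 5 h at 37 C/5% CO2, then pinned with compounds in DMSO; nonlytic luminescence tracked viability during 40 h treatment.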
# [10] = qHTS RealTime-Glo MT Cell Viability Assay in HEK293 cells - 40 hour (AID 1224874); conditions: RealTime-Glo luminescence; max response: active compounds read low; note: % is set by controls: 0 for no effect and ±100 for the full control effect; nearly all actives have a fitted effect of over 50% in size
# Summary of the method: as §3
# Tags give direction and shape of the fitted curve.
smiles,measurement,setting,value
Cc1ccnc2c1NC(=O)c1cccnc1N2C1CC1,Potency,[1],inactive
C=CC(=O)NC(C)(C)CS(=O)(=O)O,Potency,[1],active: 43.6 µM
same,Potency,[2],active: 43.6 µM
C=C1C[C@@]23CC[C@H]4[C@@](C)(CCC[C@@]4(C)C(=O)O[C@@H]4O[C@H](CO)[C@@H](O)[C@H](O)[C@H]4O)[C@@H]2CC[C@]1(O[C@@H]1O[C@H](CO)[C@@H](O)[C@H](O[C@@H]2O[C@H](CO)[C@@H](O)[C@H](O)[C@H]2O)[C@H]1O[C@@H]1O[C@H](CO)[C@@H](O)[C@H](O)[C@H]1O)C3,Potency,[3],inactive
same,Potency,[4],inactive
C[C@@H]1C[C@H]2[C@@H]3C[C@H](F)C4=CC(=O)C=C[C@]4(C)[C@@]3(F)[C@@H](O)C[C@]2(C)[C@@]1(O)C(=O)CO,Potency,[5],inactive
same,Potency,[6],"inconclusive: 15.1 µM [activator, single point]"
same,Potency,[7],"inconclusive: 23.9 µM [falling, single point]"
COc1cc2[nH]c(=O)[nH]c(=O)c2cc1OC,Potency,[1],inactive
OCCOCC#CCOCCO,Potency,[5],inactive
same,Potency,[8],inactive
CCCCC=O,Potency,[5],inactive
CCc1cc(Cl)c(OC)c(C(=O)NC[C@@H]2CCCN2CC)c1O,Potency,[5],inactive
Nc1ccn(C2CO[C@H](CO)O2)c(=O)n1 (stereo partly specified),Potency,[1],active: 16.9 µM
same,Potency,[8],active: 19 µM
same,Potency,[2],active: 7.56 µM
CCOc1c(N2CCOCC2)cnn(C)c1=O,Potency,[9],inactive
same,max response,[10],inactive: 3.38%
COc1cccc(OC)c1C(=O)O,Potency,[5],"inconclusive: 61.6 µM [activator, single point]"
same,Potency,[8],"inconclusive: 61.6 µM [activator, single point]"
same,Potency,[4],"inconclusive: 61.6 µM [activator, single point]"
